Out of some 45,000 compounds screened, about 65 (0.1%) were called active. Calls follow the shape of the dose curve; as a rule, active = well fitted activation curve with a large enough effect; inconclusive = small, poorly fitted or top-dose-only effect; inactive = no such curve, though single readings can be large or run the other way. This is one part of the list.
The molecules below were run against Galactocerebrosidase (Homo sapiens) (UniProt P54803) (assay: A Novel Cell-Based Assay to Identify Small Molecules for B -Galactocerebrosidase). Settings: 145M-Twi-hGALC-G270D cells (Twitcher mouse brain line with human GALC G270D), HMU-beta-Gal fluorescence, 48 h; series mostly up to 57.5 µM; activation: at the top concentration.
UniProt P54803, sequence (P54803 whole entry, looked up): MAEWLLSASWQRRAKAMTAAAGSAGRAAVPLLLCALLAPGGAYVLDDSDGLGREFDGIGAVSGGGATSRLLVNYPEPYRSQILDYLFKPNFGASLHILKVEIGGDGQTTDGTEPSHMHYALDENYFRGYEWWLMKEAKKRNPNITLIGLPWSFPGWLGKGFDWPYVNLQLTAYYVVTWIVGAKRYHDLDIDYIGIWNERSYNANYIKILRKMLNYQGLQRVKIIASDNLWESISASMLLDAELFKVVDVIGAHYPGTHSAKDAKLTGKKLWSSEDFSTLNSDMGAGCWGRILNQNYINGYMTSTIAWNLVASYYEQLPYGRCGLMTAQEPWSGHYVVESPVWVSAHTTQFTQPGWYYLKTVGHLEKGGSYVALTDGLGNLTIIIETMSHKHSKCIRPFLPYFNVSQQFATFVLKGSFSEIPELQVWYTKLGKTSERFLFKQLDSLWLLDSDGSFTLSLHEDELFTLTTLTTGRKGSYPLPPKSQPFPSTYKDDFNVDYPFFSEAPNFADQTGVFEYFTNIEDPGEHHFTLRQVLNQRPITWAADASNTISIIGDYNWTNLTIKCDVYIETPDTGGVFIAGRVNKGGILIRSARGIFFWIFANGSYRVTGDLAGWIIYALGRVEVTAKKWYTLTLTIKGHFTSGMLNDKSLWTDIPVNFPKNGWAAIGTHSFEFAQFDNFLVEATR
Method in brief: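 Fluorescence readout: HMU-β-gal cleavage by mutant GALC (0.1 mM final, citrate/phosphate pH 5.2 with 1 mg/mL taurocholate), stopped with carbonate/bicarbonate plus Triton X-100. Cells: murine Twitcher 145M-Twi expressing human G270D GALC; qHTS for activators.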
Also: 0% is about no effect; nearly all actives have a fitted effect of over 65% in size.

activation, inactive:
CN1C(C(=O)Nc2cccc(O)c2)=CC(c2cccs2)=NS1(=O)=O -9.31%
COc1ccc(C(=O)c2cn(Cc3ccccc3)c3ccccc3c2=O)cc1OC -15.2%
O=C(NCCc1nc2ccccc2n1Cc1ccccc1F)c1ccc(F)cc1 -15%
COc1ccc(N(C(=O)c2ccccc2C)S(=O)(=O)c2ccc(Cl)cc2)cc1 -9.96%
COc1cc(S(=O)(=O)NCCc2c(C)[nH]c3ccc(C)cc23)ccc1Br 2.57%
Nc1ncc(S(=O)(=O)NCc2ccccc2)cn1 -0.991%
Cc1cccc(N2CCN(C(=O)C3CCN(C(=O)c4cc5sccc5n4C)CC3)CC2C)c1 (configuration not stated) -22.8%
COc1ccc(CN(C)c2ccc(-c3nc(-c4ccc(OC)c(OC)c4)no3)cc2[N+](=O)[O-])cc1 -4.47%
O=C(Nc1cc(Cl)cc(Cl)c1)c1cc(S(=O)(=O)NC2CCCC2)ccc1F -4.11%
CN1C(=O)c2cccc3c(S(=O)(=O)Nc4cccc(C(=O)O)c4)ccc1c23 -20.3%
CCOc1ccc(NC(=O)CN(Cc2ccccc2)S(=O)(=O)c2ccc3nc(C)sc3c2)cc1 -6.74%
CCOc1ccc(CCNC(=O)Cn2c(-c3cccs3)cc3ccccc32)cc1 -6.67%
COc1cn(CC(=O)Nc2cc(C)cc(C)c2)c(CN2CCCCC2)cc1=O -12.8%
CCC(C)S(=O)(=O)c1oc(-c2cccs2)nc1S(=O)(=O)c1ccccc1 (configuration not stated) -16.6%
CCOc1ccccc1CNCc1c(C(=O)O)c(C)n(Cc2ccc(C)cc2)c1C -11.8%
CN1CCc2nc3sc(C(=O)c4ccc(F)cc4)c(N)c3cc2C1 -11.2%
COc1cccc(-c2nnc(SCC(=O)N(C)C3CCCCC3)o2)c1 -14.8%
Cc1cccc(NC(=O)c2oc3ccccc3c2NC(=O)c2cc(=O)c3ccccc3o2)c1 -14.1%
CCOc1ccc(N2CC(NC(=O)c3ccc(Cl)cc3)CC2=O)cc1 (configuration not stated) -8.63%
CCN(CC)S(=O)(=O)c1ccc(OC)c(NC(=O)c2sc3ccccc3c2Cl)c1 2.74%
CN(c1ccc(F)cc1)S(=O)(=O)N1CCCC(C(=O)NCc2ccccc2Cl)C1 (configuration not stated) -21.4%
Cc1ccc2c(c1)c1c(c(=O)n(Cc3ccccc3)c(=O)n1Cc1ccccc1F)n2C 1.63%
NC(CO)(CO)CO -19.1%
CNC(=O)CN1C(=O)COc2ccc(S(=O)(=O)N3CCCCCC3)cc21 -8.27%
CCOC(=O)N1CCc2c(sc3c2c(=O)n(Cc2ccccc2)c(=O)n3CC(=O)Nc2ccc(F)cc2)C1 -3.54%
COc1cccc(NC(=O)Cn2c(=O)n(Cc3ccc4c(c3)OCO4)c(=O)c3oc4ccccc4c32)c1 -14.7%
Cc1ccc(-n2ncc(C(=O)NCCN3CCN(C)CC3)c2C2CCN(C(=O)OC(C)(C)C)CC2)cc1C 0.0269%
COc1ccc(NC(=O)[C@H](Cc2ccccc2)N2Cc3ccccc3C2=O)cc1OC 12.1%
CCOc1ccc(CNC(=O)Cn2c(=O)c3cccn3c3cccnc32)cc1 -8.79%
COc1ccc2c(c1)c(N1CCCC1=O)c(C(=O)Nc1ccc(OC)c(Cl)c1)n2C -22.1%
CC(=O)c1cccc(NS(=O)(=O)c2c(C(=O)N3CCCCCC3)c(C)n(C)c2C)c1 -17.2%
Cc1ccc(S(=O)(=O)c2cn(Cc3ccccc3)c3cc(N4CCOCC4)c(F)cc3c2=O)cc1 -7.84%
CCc1ccc(CNC(=O)CCn2nc(C)c3c(C)n(-c4ccccc4)nc3c2=O)cc1 -16.7%
COc1cc(NC(=O)c2noc3c2CC(C)CC3)c(OC)cc1Cl (configuration not stated) -14.2%
CCc1ccc(NC(=O)c2cc(S(=O)(=O)NC3CCCCCC3)ccc2F)cc1 -2.52%
Cc1nn(-c2ccccc2)c2c1N(CC(=O)N1CCN(c3ccc(Cl)cc3)CC1)C(=O)CS2 -8.05%
Cc1nn(-c2ccccc2)c2c1N(CCCC(=O)NC(C)c1ccccc1)C(=O)CS2 (configuration not stated) -14%
Cc1nn2c(-c3ccccc3)cc(-c3ccccc3)nc2c1-c1ccc(Cl)cc1 -10.9%
COc1ccc(C(CC(=O)Nc2ncccc2C)N2Cc3ccccc3C2=O)cc1OC (configuration not stated) 8.63%
O=C(Nc1ccccc1)c1cccc(N2CCCS2(=O)=O)c1 -15.1%
Cc1cc(C)n2nc(CNC(=O)c3ccc(Cl)cc3)nc2n1 -2.9%
COc1ccc(-n2c(SCCC(C)C)nc3sc4c(c3c2=O)CC(C(C)C)OC4)cc1 (configuration not stated) -15.1%
CC1CCC(NC(=O)c2ccc(CSc3nc4ccncc4n3Cc3ccc(F)cc3)cc2)CC1 (configuration not stated) -8.3%
Cc1nn(CCCC(=O)Nc2ccccc2C(F)(F)F)c(=O)c2nn(-c3ccccc3)c(C)c12 -8.28%
Cc1ccc(Cl)cc1N1CCN(C(=O)c2ccc3c(Cl)c4c(nc3c2)CCCC4)CC1 -20.4%
O=C(Cn1c(=O)ccc2cc(S(=O)(=O)N3CCCC3)ccc21)Nc1ccccc1 -20.7%
COc1cccc(-c2nc(CS(=O)(=O)CC(=O)N3CCN(c4ccccc4)CC3)c(C)o2)c1 -11.8%
CCC(=O)N1c2ccccc2CC1C(=O)NCCCN1CCN(c2ccc(OC)cc2)CC1 (configuration not stated) -18.9%
CCn1cc(C(=O)NCCC(C)C)c(=O)c2cc(S(=O)(=O)N(C)C3CCCCC3)ccc21 -12.6%
CCCCOc1ccc(CNC(=O)c2cnc3sc(N4CCCC4)nn3c2=O)cc1 -7.97%
Cc1c(Cl)cccc1NC(=O)C(=O)NCCc1csc2nc(-c3ccccc3F)nn12 -22.5%
O=C(Cn1c(-c2cccs2)cc2cc(F)ccc21)NCCc1ccc(Cl)cc1 -9.26%
O=S(=O)(Nc1ccc(O)c(Sc2nc3ccccc3s2)c1)c1cc(Cl)ccc1Cl -32.2%
CC1CCCCN1c1cc2c(cc1F)c(=O)c(S(=O)(=O)c1ccccc1)cn2Cc1ccccc1 (configuration not stated) -7.57%
COc1ccc(-c2nc(CNC(=O)Nc3ccccc3)c(C)o2)c(OC)c1 -9.93%
CCN1CCN(CCCNC(=O)Cn2c(-c3cccs3)cc3cc(Cl)ccc32)CC1 -6.75%
O=c1ccc(-c2ccccc2)nn1Cc1c(F)cccc1Cl -8.05%
CCn1ccc2c(OCC(=O)Nc3ccc(OC)cc3OC)cccc2c1=O 7.94%
CCc1ccc(NC(=O)C(=O)NCC(c2ccc3c(c2)OCO3)N2CCN(C)CC2)cc1 (configuration not stated) -12.1%
COc1ccc(Nc2ncc(C(=O)Nc3cccc(Cl)c3)c3ccccc23)cc1 -8.84%
Cc1ccc(OCC(=O)NCC2(N3CCN(C)CC3)CCCCC2)cc1 -10.6%
Cc1ccc(C)c(NC(=O)c2cc(S(=O)(=O)NCc3ccccc3)ccc2F)c1 -15.1%
